Results published in the supplement of paper PMC12423691.
Some of the results follow. Binding of human transcription factors and regulators to the viral nucleoprotein by AlphaScreen, crude cell-free proteins, amounts not normalised, one pass. Fold of the Venus control; higher = more signal. No active / inactive call. Single-pass screen; sequences are the whole Swiss-Prot entries looked up by name.

B1: NR4A3, Q92570 (protein)
chain: MPCVQAQYSPSPPGSSYAAQTYSSEYTTEIMNPDYTKLTMDLGSTEITATATTSLPSISTFVEGYSSNYELKPSCVYQMQRPLIKVEEGRAPSYHHHHHHHHHHHHHHQQQHQQPSIPPASSPEDEVLPSTSMYFKQSPPSTPTTPAFPPQAGALWDEALPSAPGCIAPGPLLDPPMKAVPTVAGARFPLFHFKPSPPHPPAPSPAGGHHLGYDPTAAAALSLPLGAAAAAGSQAAALESHPYGLPLAKRAAPLAFPPLGLTPSPTASSLLGESPSLPSPPSRSSSSGEGTCAVCGDNAACQHYGVRTCEGCKGFFKRTVQKNAKYVCLANKNCPVDKRRRNRCQYCRFQKCLSVGMVKEVVRTDSLKGRRGRLPSKPKSPLQQEPSQPSPPSPPICMMNALVRALTDSTPRDLDYSRYCPTDQAAAGTDAEHVQQFYNLLTASIDVSRSWAEKIPGFTDLPKEDQTLLIESAFLELFVLRLSIRSNTAEDKFVFCNGLVLHRLQCLRGFGEWLDSIKDFSLNLQSLNLDIQALACLSALSMITERHGLKEPKRVEELCNKITSSLKDHQSKGQALEPTESKVLGALVELRKICTLGLQRIFYLKLEDLVSPPSIIDKLFLDTLPF
B2: ZNF586, Q9NXT0 (protein)
chain: MAAAAALRAPAQSSVTFEDVAVNFSLEEWSLLNEAQRCLYRDVMLETLTLISSLGCWHGGEDEAAPSKQSTCIHIYKDQGGHSGERPYECGEYRKLFKNKSCLTEPRRDHKHRNVRTGERPYECSKYGKLFHQKPTLHIHERFHTGQKTYECSECGKSFHQSSSLLQRQTLHTRERPYECIECGKAFAEKSSLINHRKVHSGAKRYECNECGKSFAYTSSLIKHRRIHTGERPYECSECGRSFAENSSLIKHLRVHTGERPYECVECGKSFRRSSSLLQHQRVHTRERPYECSECGKSFSLRSNLIHHQRVHTGERHECGQCGKSFSRKSSLIIHLRVHTGERPYECSDCGKSFAENSSLIKHLRVHTGERPYECIDCGKSFRHSSSFRRHQRVHTGMRPYK
B3: ZNF217, O75362 (protein)
chain: MQSKVTGNMPTQSLLMYMDGPEVIGSSLGSPMEMEDALSMKGTAVVPFRATQEKNVIQIEGYMPLDCMFCSQTFTHSEDLNKHVLMQHRPTLCEPAVLRVEAEYLSPLDKSQVRTEPPKEKNCKENEFSCEVCGQTFRVAFDVEIHMRTHKDSFTYGCNMCGRRFKEPWFLKNHMRTHNGKSGARSKLQQGLESSPATINEVVQVHAAESISSPYKICMVCGFLFPNKESLIEHRKVHTKKTAFGTSSAQTDSPQGGMPSSREDFLQLFNLRPKSHPETGKKPVRCIPQLDPFTTFQAWQLATKGKVAICQEVKESGQEGSTDNDDSSSEKELGETNKGSCAGLSQEKEKCKHSHGEAPSVDADPKLPSSKEKPTHCSECGKAFRTYHQLVLHSRVHKKDRRAGAESPTMSVDGRQPGTCSPDLAAPLDENGAVDRGEGGSEDGSEDGLPEGIHLDKNDDGGKIKHLTSSRECSYCGKFFRSNYYLNIHLRTHTGEKPYKCEFCEYAAAQKTSLRYHLERHHKEKQTDVAAEVKNDGKNQDTEDALLTADSAQTKNLKRFFDGAKDVTGSPPAKQLKEMPSVFQNVLGSAVLSPAHKDTQDFHKNAADDSADKVNKNPTPAYLDLLKKRSAVETQANNLICRTKADVTPPPDGSTTHNLEVSPKEKQTETAADCRYRPSVDCHEKPLNLSVGALHNCPAISLSKSLIPSITCPFCTFKTFYPEVLMMHQRLEHKYNPDVHKNCRNKSLLRSRRTGCPPALLGKDVPPLSSFCKPKPKSAFPAQSKSLPSAKGKQSPPGPGKAPLTSGIDSSTLAPSNLKSHRPQQNVGVQGAATRQQQSEMFPKTSVSPAPDKTKRPETKLKPLPVAPSQPTLGSSNINGSIDYPAKNDSPWAPPGRDYFCNRSASNTAAEFGEPLPKRLKSSVVALDVDQPGANYRRGYDLPKYHMVRGITSLLPQDCVYPSQALPPKPRFLSSSEVDSPNVLTVQKPYGGSGPLYTCVPAGSPASSSTLEGKRPVSYQHLSNSMAQKRNYENFIGNAHYRPNDKKT
B4: MEF2A, Q02078 (protein)
chain: MGRKKIQITRIMDERNRQVTFTKRKFGLMKKAYELSVLCDCEIALIIFNSSNKLFQYASTDMDKVLLKYTEYNEPHESRTNSDIVEALNKKEHRGCDSPDPDTSYVLTPHTEEKYKKINEEFDNMMRNHKIAPGLPPQNFSMSVTVPVTSPNALSYTNPGSSLVSPSLAASSTLTDSSMLSPPQTTLHRNVSPGAPQRPPSTGNAGGMLSTTDLTVPNGAGSSPVGNGFVNSRASPNLIGATGANSLGKVMPTKSPPPPGGGNLGMNSRKPDLRVVIPPSSKGMMPPLSEEEELELNTQRISSSQATQPLATPVVSVTTPSLPPQGLVYSAMPTAYNTDYSLTSADLSALQGFNSPGMLSLGQVSAWQQHHLGQAALSSLVAGGQLSQGSNLSINTNQNISIKSEPISPPRDRMTPSGFQQQQQQQQQQQPPPPPQPQPQPPQPQPRQEMGRSPVDSLSSSSSSYDGSDREDPRGDFHSPIVLGRPPNTEDRESPSVKRMRMDAWVT
B5: GLIS2, Q9BZE0 (protein)
chain: MHSLDEPLDLKLSITKLRAAREKRERTLGVVRPRALHRELGLVDDSPTPGSPGSPPSGFLLNSKFPEKVEGRFSAAPLVDLSLSPPSGLDSPNGSSSLSPERQGNGDLPPVPSASDFQPLRYLDGVPSSFQFFLPLGSGGALHLPASSFLTPPKDKCLSPDLPLPKQLVCRWAKCNQLFELLQDLVDHVNDYHVKPEKDAGYCCHWEGCARHGRGFNARYKMLIHIRTHTNEKPHRCPTCSKSFSRLENLKIHNRSHTGEKPYVCPYEGCNKRYSNSSDRFKHTRTHYVDKPYYCKMPGCHKRYTDPSSLRKHIKAHGHFVSHEQQELLQLRPPPKPPLPAPDGGPYVSGAQIIIPNPAALFGGPGLPGLPLPLAPGPLDLSALACGNGGGSGGGGGMGPGLPGPVLPLNLAKNPLLPSPFGAGGLGLPVVSLLAGAAGGKAEGEKGRGSVPTRALGMEGHKTPLERTESSCSRPSPDGLPLLPGTVLDLSTGVNSAASSPEALAPGWVVIPPGSVLLKPAVVN
B6: ZNF660, Q6AZW8 (protein)
chain: MRRKTRNFKHKTVKDNKVLTEGSDQESEKDNSQCCDPATNERVQAEKRQYVCTECGKAFSQSANLTVHERIHTGEKPYKCKECGKAFSHSSNLVVHRRIHTGLKPYTCSECGKSFSGKSHLIRHQGIHSGEKTYECKECGKAFSRSSGLISHHRVHTGEKPYSCIECGKAFSRSSNLTQHQRMHRGKKVYKCKECGKTCGSNTKIMDHQRIHTGEKPYECDECGKTFILRKTLNEHQRLHRREKPYKCNECGKAFTSNRNLVDHQRVHTGEKPYKCNECGKTFRQTSQVILHLRTHTKEKPYKCSECGKAYRYSSQLIQHQRKHNEEKETS
B7: TFDP1, Q14186 (protein)
chain: MAKDAGLIEANGELKVFIDQNLSPGKGVVSLVAVHPSTVNPLGKQLLPKTFGQSNVNIAQQVVIGTPQRPAASNTLVVGSPHTPSTHFASQNQPSDSSPWSAGKRNRKGEKNGKGLRHFSMKVCEKVQRKGTTSYNEVADELVAEFSAADNHILPNESAYDQKNIRRRVYDALNVLMAMNIISKEKKEIKWIGLPTNSAQECQNLEVERQRRLERIKQKQSQLQELILQQIAFKNLVQRNRHAEQQASRPPPPNSVIHLPFIIVNTSKKTVIDCSISNDKFEYLFNFDNTFEIHDDIEVLKRMGMACGLESGSCSAEDLKMARSLVPKALEPYVTEMAQGTVGGVFITTAGSTSNGTRFSASDLTNGADGMLATSSNGSQYSGSRVETPVSYVGEDDEEDDDFNENDEDD
B8: FOSL2, P15408 (protein)
chain: MYQDYPGNFDTSSRGSSGSPAHAESYSSGGGGQQKFRVDMPGSGSAFIPTINAITTSQDLQWMVQPTVITSMSNPYPRSHPYSPLPGLASVPGHMALPRPGVIKTIGTTVGRRRRDEQLSPEEEEKRRIRRERNKLAAAKCRNRRRELTEKLQAETEELEEEKSGLQKEIAELQKEKEKLEFMLVAHGPVCKISPEERRSPPAPGLQPMRSGGGSVGAVVVKQEPLEEDSPSSSSAGLDKAQRSVIKPISIAGGFYGEEPLHTPIVVTSTPAVTPGTSNLVFTYPSVLEQESPASPSESCSKAHRRSSSSGDQSSDSLNSPTLLAL
B9: TBX5, Q99593 (protein)
chain: MADADEGFGLAHTPLEPDAKDLPCDSKPESALGAPSKSPSSPQAAFTQQGMEGIKVFLHERELWLKFHEVGTEMIITKAGRRMFPSYKVKVTGLNPKTKYILLMDIVPADDHRYKFADNKWSVTGKAEPAMPGRLYVHPDSPATGAHWMRQLVSFQKLKLTNNHLDPFGHIILNSMHKYQPRLHIVKADENNGFGSKNTAFCTHVFPETAFIAVTSYQNHKITQLKIENNPFAKGFRGSDDMELHRMSRMQSKEYPVVPRSTVRQKVASNHSPFSSESRALSTSSNLGSQYQCENGVSGPSQDLLPPPNPYPLPQEHSQIYHCTKRKEEECSTTDHPYKKPYMETSPSEEDSFYRSSYPQQQGLGASYRTESAQRQACMYASSAPPSEPVPSLEDISCNTWPSMPSYSSCTVTTVQPMDRLPYQHFSAHFTSGPLVPRLAGMANHGSPQLGEGMFQHQTSVAHQPVVRQCGPQTGLQSPGTLQPPEFLYSHGVPRTLSPHQYHSVHGVGMVPEWSDNS

Molecular target: nucleoprotein N of Crimean-Congo hemorrhagic fever virus
Test: AlphaScreen luminescence signal relative to Venus negative control (fold); higher = stronger binding to CCHFV N
Method: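 AlphaScreen binding of cell-free made, FLAG-GST-tagged human transcription factors and regulators (crude translation products) to biotinylated N protein; signal as fold of the FLAG-GST-Venus control. One pass.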

| Binder | AlphaScreen luminescence signal |
| --- | --- |
| B1 | 7.3 |
| B2 | 2 |
| B3 | 2.47 |
| B4 | 2 |
| B5 | 1.77 |
| B6 | 2.37 |
| B7 | 2.74 |
| B8 | 1.77 |
| B9 | 3.91 |
